The record followed here is a collection of fitness landscapes (doi:10.1126/science.1257360).

The list shows a part of the results.

First the molecules themselves.
B1: PhoQ; a variant is named by its letters at X, in order, P23837 (parent)
chain: MKKLLRLFFPLSLRVRFLLATAAVVLVLSLAYGMVALIGYSVSFDKTTFRLLRGESNLFYTLAKWENNKLHVELPENIDKQSPTMTLIYDENGQLLWAQRDVPWLMKMIQPDWLKSNGFHEIEADVNDTSLLLSGDHSIQQQLQEVREDDDDAEMTHSVAVNVYPATSRMPKLTIVVVDTIPVELKSSYMVWSWFIYVLSANLLLVIPLLWVAAWWSLRPIEALAKEVRELEEHNRELLNPATTRELTSLVRNLNRLLKSERERYDKYRTTLTDLTHSLKTPLXXLQXXLRSLRSEKMSVSDAEPVMLEQISRISQQIGYYLHRASMRGGTLLSRELHPVAPLLDNLTSALNKVYQRKGVNISLDISPEISFVGEQNDFVEVMGNVLDNACKYCLEFVEISARQTDEHLYIVVEDDGPGIPLSKREVIFDRGQRVDTLRPGQGVGLAVAREITEQYEGKIVAGESMLGGARMEVIFGRQHSAPKDE

This assay covers variants of B1. The experiment in a line: enrichment ratio after two sorts for PhoP signalling (ratio (wild type AVST 3.29)); higher = more functional. The note with it: with PhoP (E. coli).
On to GGNG, for which the enrichment ratio is not above 0.25.

Consider HRTW, for which the enrichment ratio was not above 0.25. Next, WSCH: not above 0.25; HWQV: not above 0.25; YKAT: not above 0.25. Next, FFYH: not above 0.25. The result for ELER reads not above 0.25; that for YQNT, not above 0.25.

On to IVSC, for which the enrichment ratio is not above 0.25. For TGLD, the enrichment ratio amounted to 7.18. Turning to WMKS, the enrichment ratio was not above 0.25.

Take HDFM: the enrichment ratio was not above 0.25.

For the variant GWST, the enrichment ratio was not above 0.25.

For MERV, the enrichment ratio was not above 0.25. Next, GHPY: not above 0.25; YSKT: not above 0.25; KGNP: not above 0.25.

With ECKP, the enrichment ratio is not above 0.25. HNSS: the enrichment ratio is not above 0.25. Take IHVW: the enrichment ratio is not above 0.25.

With EFKK, the enrichment ratio is not above 0.25. Turning to NKQM, the enrichment ratio is not above 0.25. With YPVI, the enrichment ratio was not above 0.25.

MNKK: the enrichment ratio is not above 0.25. In the case of GLNK, the enrichment ratio was not above 0.25.

As to THKY, the enrichment ratio is not above 0.25.

As for EDWG, the enrichment ratio is not above 0.25.

Turning to MMNW, the enrichment ratio was not above 0.25. Next, QYMY: not above 0.25; MCWP: not above 0.25. For the variant IQIA, the enrichment ratio is not above 0.25. Next, EQDM: not above 0.25; WRYP: not above 0.25. Next, QERY: not above 0.25. Next, ITND: not above 0.25; YDTA: not above 0.25; RKLR: not above 0.25. For the variant AFFK, the enrichment ratio was not above 0.25.

RPVL: the enrichment ratio is not above 0.25. The result for TSMI reads 23; that for LNCK, not above 0.25; that for MWPK, not above 0.25. The result for IIEA reads not above 0.25. Next, EAYG: not above 0.25; RGWN: not above 0.25.

For the variant LMMI, the enrichment ratio is not above 0.25. Take MLAI: the enrichment ratio is 4.36. Consider NSSE, for which the enrichment ratio is not above 0.25. With VQIQ, the enrichment ratio was found to be 0.272. The result for VLTL reads 3.19; that for KRTG, not above 0.25; that for IVYM, not above 0.25. For the variant PLNW, the enrichment ratio is not above 0.25. For QDKL, the enrichment ratio was not above 0.25. Next, REPV: not above 0.25; TCDL: 3.52; IVIC: not above 0.25. Next, KQPF: not above 0.25; FIVK: not above 0.25. As to YHSV, the enrichment ratio is not above 0.25. VYHH: the enrichment ratio is not above 0.25.

For the variant WSHE, the enrichment ratio was not above 0.25. As to INDN, the enrichment ratio was not above 0.25. Next, FRDY: not above 0.25. The result for YNVI reads not above 0.25. As for IDVL, the enrichment ratio was not above 0.25. Turning to LLYE, the enrichment ratio is not above 0.25. As to DMSE, the enrichment ratio was not above 0.25.

In the case of WVFP, the enrichment ratio was not above 0.25. The result for GREA reads not above 0.25; that for SGCT, 11.1; that for ACHQ, not above 0.25. Next, VHCI: not above 0.25. Next, SCRT: not above 0.25. For FFTE, the enrichment ratio is not above 0.25. Next, NYYS: not above 0.25; ESVL: not above 0.25; PDIS: not above 0.25. With HIRN, the enrichment ratio is not above 0.25.

Turning to NDNY, the enrichment ratio was not above 0.25. Next, GRNK: not above 0.25; PQGG: not above 0.25; QVVH: not above 0.25.

Regarding ALEK, the enrichment ratio was not above 0.25. Next, SYNE: not above 0.25.

With FQCY, the enrichment ratio is not above 0.25. The result for GMES reads not above 0.25; that for LKVV, not above 0.25; that for GWMY, not above 0.25. Regarding MPAK, the enrichment ratio was not above 0.25. Next, GLQH: not above 0.25.

In the case of RKYL, the enrichment ratio is not above 0.25. Next, FNPA: not above 0.25; VFQC: not above 0.25; FKMY: not above 0.25. Next, IQIV: not above 0.25; DQIT: not above 0.25; VAKK: not above 0.25. The result for RSKT reads not above 0.25; that for EFVW, not above 0.25. Take KSSN: the enrichment ratio was not above 0.25.

PAVY: the enrichment ratio was not above 0.25. The result for RQWT reads not above 0.25; that for AWEA, not above 0.25. Next, YHGS: not above 0.25; THVH: 0.294. The result for AHEI reads not above 0.25; that for QMFK, not above 0.25. On to NMRH, for which the enrichment ratio was not above 0.25. With YNNF, the enrichment ratio was not above 0.25. Next, VNMV: 7.5. As to EPVG, the enrichment ratio is not above 0.25.

In the case of NQNN, the enrichment ratio is not above 0.25.

As to GQDP, the enrichment ratio was not above 0.25. The result for KRAW reads not above 0.25; that for DFPI, not above 0.25; that for INSA, not above 0.25.

On to PTDV, for which the enrichment ratio is not above 0.25. Turning to GLMM, the enrichment ratio came out at 1.41. For RRYY, the enrichment ratio is not above 0.25.

Turning to WWHN, the enrichment ratio was not above 0.25.

Turning to NYKE, the enrichment ratio was not above 0.25. Next, PQLP: not above 0.25; NELL: not above 0.25; FVFD: not above 0.25.

On to KENH, for which the enrichment ratio is not above 0.25.

As to FHED, the enrichment ratio is not above 0.25. Next, LAGG: not above 0.25.

In the case of TQFV, the enrichment ratio came out at 2.48. Take FRET: the enrichment ratio is not above 0.25. On to FLFV, for which the enrichment ratio was not above 0.25.

As for GGFN, the enrichment ratio is not above 0.25. The result for EKRH reads not above 0.25.

Turning to FSII, the enrichment ratio is 1.77. As for SYHY, the enrichment ratio was not above 0.25. Next, IIAL: not above 0.25; TWHA: not above 0.25.

Consider DYVI, for which the enrichment ratio is not above 0.25. Next, YKLF: not above 0.25. Regarding NQNG, the enrichment ratio is not above 0.25. The result for LKHI reads not above 0.25; that for QELD, not above 0.25; that for QQYI, not above 0.25. NKPC: the enrichment ratio is not above 0.25. As for YHNS, the enrichment ratio is not above 0.25. Regarding TWAD, the enrichment ratio was not above 0.25. The result for RSIM reads not above 0.25. As for TSSG, the enrichment ratio came to 14.4.

On to PKLS, for which the enrichment ratio is not above 0.25. As for ENYV, the enrichment ratio was not above 0.25. Next, HDWS: not above 0.25; PSLG: not above 0.25. Consider KNRY, for which the enrichment ratio was not above 0.25.
